# Assay results: PubChem BioAssay AID686971 (National Center for Advancing Translational Sciences (NCATS), 2013)
# Out of some 360,000 compounds screened, about 7,500 (2.1%) were called active. This list was built around the results that the source calls inconclusive (neither active nor inactive); the mix of calls is not that of the screen. The call rests on the fitted dose curve; in most records, active means well fitted cell-killing curve with a large enough effect; inconclusive means small, poorly fitted or top-dose-only effect, or effect the other way, or another doubt; inactive means no such curve, though single readings can be large or run the other way. No potency is given beside an inconclusive call; the fits are too rough.
# Assay: qHTS for induction of synthetic lethality in tumor cells producing 2HG: qHTS for the HT-1080-IDH1KD cell line;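 on activity, negative = toxicity: 0% = DMSO wells and -100% = cell-free medium wells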
# Details: HT-1080 IDH1 knockdown viability, ATP luminescence, 48 h; activity, negative = toxicity: at 46.1 µM (top of the series) unless noted
# Outline: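 Knockdown cells (IDH1KD HT-1080) received compounds 2 h after plating at 750 cells/well and were kept 48 h at 37 °C in 5% FBS RPMI. A CellTiter-Glo luminescence read gave % activity for curve fitting.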
# Potency means the concentration at half of the fitted maximal effect; tags describe the fitted curve by direction and shape.
SMILES,Potency,"activity, negative = toxicity"
O=C(CNC(=O)c1ccc(Br)o1)OCc1ccc(Br)cc1,inactive,–
CC(C)CN(C(=O)COC(=O)C12CC3CC(CC(C3)C1)C2)c1c(N)n(Cc2ccccc2)c(=O)[nH]c1=O,–,inconclusive: -9.5% [cytotoxic]
NC(N)=Nc1nc(-c2ccccc2)c2cc(Cl)ccc2n1,"inconclusive [cytotoxic, single point]",–
Cc1ccc(S(=O)(=O)N2CCC(C(=O)NNC(=O)c3ccccc3O)CC2)cc1C,"inconclusive [cytotoxic, single point]",–
FC(F)(F)c1ccccc1NC(=S)NN=C1CCCCCC1,active: 18.4 µM,–
CC(C)c1ccc(Nc2ncc3c(n2)CCN(C(=O)Nc2ccc(F)c(Cl)c2)C3)cc1,"inconclusive [cytotoxic, single point]",–
Nc1ccc2nc(CCCCCCCCc3nc4ccc(N)cc4[nH]3)[nH]c2c1,inactive,–
COC(=O)C1=CN(c2cccc(C(F)(F)F)c2)C=C(C(=O)OC)C1c1ccc(O)c(OC)c1,"inconclusive [cytotoxic, single point]",–
Cc1nc2c(Br)cc(Br)cc2cc1O,"inconclusive [cytotoxic, single point]",–
N/C(=N\c1nc2c(c(=O)[nH]1)CCC2)Nc1ccccc1,"inconclusive [rising, single point]",–
O=C(Nc1ccccc1NC(=O)NC1CCCCC1)NC1CCCCC1,inactive,–
O=C(/C=C/c1ccccc1)Oc1cccc2cccnc12,inactive,–
O=C(Nc1ccc(Cl)c(Cl)c1)Oc1ccc(NC(=O)c2ccco2)cc1,inactive,–
C=CCn1c(O)c(N=NC(=S)Nc2ccccc2C)c2cc(S(=O)(=O)N3CCOCC3)ccc21,"inconclusive [cytotoxic, partial curve, poor fit]",–
CCC(CC)C(=O)Nc1ccc(Sc2ccc([N+](=O)[O-])cc2)cc1,"inconclusive [cytotoxic, single point]",–
COc1ccc(NS(=O)(=O)c2ccc(NC(=O)c3ccc(Br)cc3)cc2)nn1,"inconclusive [cytotoxic, single point]",–
COCCCNC(=O)c1cccc(NC(=O)c2ccccc2)c1,–,inconclusive: 34.4%
CCOC(=O)/C=c1/s/c(=C/c2ccc3cc(OC)ccc3c2)c(=O)n1CC(=O)NCc1ccc2c(c1)OCO2,inactive,–
COc1ccc(S(=O)(=O)N(C)C[C@H]2Oc3c(NC(=O)Nc4ccc(C(F)(F)F)cc4)cccc3C(=O)N([C@H](C)CO)C[C@@H]2C)cc1,active: 20.6 µM,–
CCOc1ncccc1C(=O)Nc1cc2c(cc1Br)OCCO2,"inconclusive [cytotoxic, single point]",–
CCO[C@@H]1OC(C(=O)N2CCN(Cc3ccc4c(c3)OCO4)CC2)=C[C@H](c2csc3ccccc23)[C@H]1CCCO,"inconclusive [cytotoxic, single point]",–
CCC(=O)N/N=C(\C)CC(=O)Nc1ccc2c(c1)OCCO2,inactive,–
O=C1/C(=C/c2ccc(Br)cc2)Oc2cc(O)ccc21,"inconclusive [cytotoxic, single point]",–

SMILES,Potency,"activity, negative = toxicity"
O=C1c2cccc(NCCCNCCO)c2C(=O)c2cccc(NCCCNCCO)c21,active: 16.4 µM,–
Cc1c(C(=O)NCc2ccccc2)oc2ccc(S(=O)(=O)N3CCCC3)cc12,"inconclusive [cytotoxic, single point]",–
O=C(NCCN1CCCC1)c1ccc2c(c1)N(Cc1cccc(Cl)c1)C(=O)c1ccccc1S2(=O)=O,"inconclusive [cytotoxic, single point]",–
Cc1ccc(NC(=O)C(C)c2ccc(-c3ccccc3)c(F)c2)c(C)c1 (stereo not drawn),"inconclusive [cytotoxic, single point]",–
COc1ccccc1/C=C/C(=O)OCC(=O)c1c[nH]c2ccccc12,inactive,–
C[C@@H]1CN([C@H](C)CO)C(=O)c2cc(NC(=O)Nc3ccc(C(F)(F)F)cc3)ccc2O[C@H]1CN(C)S(=O)(=O)c1ccccc1,"inconclusive [cytotoxic, single point]",–
CC(=O)C1CCC2C3CCC4=CC(=O)CC[C@]4(C)[C@@]3(F)C(O)C[C@]12C (stereo partly drawn),"inconclusive [rising, single point]",–
COc1ccccc1[C@@H]1C(c2cccc(C)c2)=NN(c2ccccc2)[C@H]1C(=O)N1CCOC1=O,inactive,–
O=C(CSc1nc2ncccc2[nH]1)Nc1ccc2c(c1)OCO2,inactive,–
CCOc1cc(/C=C/C(=O)OCC(=O)NC2CCS(=O)(=O)C2)ccc1OCc1ccccc1 (stereo not drawn),inactive,–
CC(C)(C)C1CCc2onc(C(=O)Nc3ccc4c(c3)OCO4)c2C1 (stereo not drawn),active: 13 µM,–
CN(C)S(=O)(=O)c1cccc(NC(=O)COc2cccc3ccccc23)c1,inactive,–
COc1ccc(NC(=O)C(c2ccncc2)n2c(=O)c(-c3ccco3)nc3ccccc32)cc1 (stereo not drawn),"inconclusive [cytotoxic, partial curve]",–
COC(=O)[C@@]1(Cc2ccc(OC)cc2)[C@H]2c3cc(C(=O)N4CCCC4)n(Cc4ccsc4Br)c3C[C@H]2CN1C(=O)c1ccccc1,"inconclusive [cytotoxic, single point]",–
O=C(CN1C(=O)/C(=C\c2ccccc2Cl)Sc2ccccc21)NCCCN1CCOCC1,"inconclusive [cytotoxic, single point]",–
CC(C)N(C)S(=O)(=O)c1ccc(NC(=O)CSC(=S)N2CCCC2)cc1,inactive,–
O=C(CCl)NNC(=O)c1c(O)c2ccccc2[nH]c1=O,active: 14.6 µM,–
CC1(c2ccccc2)NC(=O)N(CC(=O)Nc2cc(C(F)(F)F)ccc2N2CCCCC2)C1=O (stereo not drawn),"inconclusive [cytotoxic, single point]",–
O=C(NC1CCCC(C(F)(F)F)C1)c1ccc([N+](=O)[O-])o1 (stereo not drawn),"inconclusive [cytotoxic, single point]",–
CCn1c2ccccc2c2cc(NC(=O)CN(C)CC(=O)Nc3ccc(N4CCOCC4)cc3)ccc21,active: 25.9 µM,–
Cc1cc(C)c(O)c(NC(=S)NC(=O)Cc2ccccc2)c1,"inconclusive [cytotoxic, partial curve, poor fit]",–
COc1cccc(N=Nc2c(N)[nH]n3c(=O)cc(-c4ccccc4)nc23)c1,"inconclusive [cytotoxic, partial curve]",–
COc1ccc(OC)c(NC(=O)c2cc(-c3cc(C)ccc3O)n[nH]2)c1,"inconclusive [cytotoxic, single point]",–

SMILES,Potency,"activity, negative = toxicity"
Cc1ccc(-c2noc(CN3CCOCC3)n2)cc1,inactive,–
CCN1C(=O)C(CC(=O)Nc2ccccc2)S/C1=N\c1ccccn1 (stereo not drawn),"inconclusive [cytotoxic, single point]",–
Cc1cc(C)n2nc(CNS(=O)(=O)c3ccc(CC(C)C)cc3)nc2n1,inactive,–
CC1C(c2ccccc2)=[N+]([O-])C2(CCCCC2)N1O (stereo not drawn),inactive,–
O=C(Nc1ccc(S(=O)(=O)N2CCCC2)cc1)c1ccc2c(=O)n3c(nc2c1)CCCCC3,inactive,–
Cc1ccsc1C(=O)NNC(=S)NCC(C)C,"inconclusive [cytotoxic, partial curve]",–
COc1cc(C2C3=C(COC3=O)Oc3cc4c(cc32)OCO4)cc(OC)c1O (stereo not drawn),"inconclusive [cytotoxic, full curve]",–
COc1ccc(C(=O)Nn2c(SCC(=O)NCc3ccco3)nc3ccccc3c2=O)cc1,"inconclusive [cytotoxic, single point]",–
CCOC(=O)NC1(NCc2ccccc2)Oc2ccccc2O1,"inconclusive [cytotoxic, partial curve]",–
C/C(=N/NC(=O)c1cc2ccccc2cc1O)C1C(=O)c2ccccc2C1=O,–,inconclusive: -30.5% [cytotoxic]
CCOC1=CC2=C(C(=O)C(Cl)=CC2=O)[C@@H]2CN(S(=O)(=O)c3ccc(C)cc3)[C@@H](c3ccccc3)[C@H]12,"inconclusive [cytotoxic, single point]",–
COc1cc2c(cc1OC)CN(c1ccc(C(F)(F)F)cn1)CC2,"inconclusive [cytotoxic, single point]",–
COC(=O)c1cn(C(=O)/C=C/c2ccc(OC)c(OC)c2)c2ccccc12,"inconclusive [cytotoxic, partial curve]",–
CN(C)/C=C/c1c([N+](=O)[O-])c2ccc(O)cc2n1-c1ccccc1,"inconclusive [cytotoxic, partial curve]",–
CS(=O)(=O)c1ccc(C(=O)NC2CCCc3ccccc32)cc1 (stereo not drawn),inactive,–
Cc1ccc(CNC(=O)C(=O)NCCC2CCCCN2S(=O)(=O)c2ccccc2)cc1 (stereo not drawn),inactive,–
O=C(Nc1ccnn1C1CCN(CCCC2CCCC2)CC1)c1ccccc1,"inconclusive [cytotoxic, single point]",–
CCc1ccc(CCC(=O)Nc2ccc(C)cc2C)o1,"inconclusive [cytotoxic, single point]",–
O=c1c(Cl)c(NCCCO)cnn1-c1nc2ccccc2[nH]1,active: 13 µM,–
COc1ccc(-c2cc(NC(C)=O)c3ncc(-c4ccc(OC)c(OC)c4)n3c2)c(OC)c1,"inconclusive [cytotoxic, single point]",–
OC1(c2ccc(Br)cc2)CCNCC1,"inconclusive [cytotoxic, single point]",–
CC(=Nc1ccccc1)C1=C(O)C(Cc2ccccc2)NC1=O (stereo not drawn),"inconclusive [cytotoxic, full curve]",–
